Test results published in the RNAGym collection of RNA variant scans (doi:10.7554/elife.90254).
The source gives no read counts; variants with many changes may rest on few reads.

B1: LINE1-mini (parent)
chain: GGCAGAGCUCAACACAGCGUGGCAAAGUGGCUGUGGCUAGACUGCC

Variants of: B1
Test: self-cleavage, relative activity (ratio to wild type); higher = more cleavage; in vitro, sequencing; the parent is a self-cleaving ribozyme

| Variant | self-cleavage |
| --- | --- |
| GGCAGAGCGCAACACAGUGUGGCAAAGUGGCUGUGCCUAGACCGCC [U9G C18U G36C U43C] | 0.01 |
| GGCAGAGCUCGACACAGCGUGGCGAAGUGGCUGUGGCUAAACUGCC [A11G A24G G40A] | 0.02 |
| GGCAGCGCUCAACACAGCGUGGCAAAGUGGCUAUGGCUAGACUGUC [A6C G33A C45U] | 0.03 |
| GGCAGAGCUUAACACAGCGUGACAAAGUGGCUGUGGCUAGACUGGC [C10U G22A C45G] | 0.06 |
| GGCAAAGCUCAACACAGCGUGGCAAAGUCGGUGUGGCUAGACUGCC [G5A G29C C31G] | 0.03 |
| GGUAGAGCUCACCUCAGCGUGGCAAAGUGGCUGUGGCUAGACUGCC [C3U A12C A14U] | 0.02 |
| GGCAGAGCGCAAGACAGCCUGGCAAAGUUUCGGUGGCUAGACUGCC [U9G C13G G19C G29U G30U U32G] | 0.06 |
| GGGAGAACUCAAGACAGCGUGGCAAGGUGGCUGUGGCUAGACUGCC [C3G G7A C13G A26G] | 0.13 |
| GGCAGAACUUAACACAGCGUGGCAUUGUGUCUGUGGCUAGACUGCC [G7A C10U A25U A26U G30U] | 0.06 |
| GGCAGAGCUUAACCCAGAGUGGCAAAUUGGCUGUGGCUAGACUGCC [C10U A14C C18A G27U] | 0.04 |
| GGUAGAGCUCAACACAGCUUGGCGCAGUGGCUGUGGCUAGACUGCC [C3U G19U A24G A25C] | 0.15 |
| GGUAGAGCUCAACACAGCGUAGCAAUGUGGCUGUGGCUAGUCUGCC [C3U G21A A26U A41U] | 0.7 |
| GGCAGAGCUCAACAUAGCGUGGCGAAGCGGCUGUGGCUAGACUGCC [C15U A24G U28C] | 0.74 |
| GGCAGACCUCAACCCCGCGUGGCAAACUGUCUGUGGCUAGACUGCC [G7C A14C A16C G27C G30U] | 0.06 |
| GGCAGAGCUCAACACUACCUGGCAAAGUGGCUGUGGCUAGACUGCC [A16U G17A G19C] | 0.27 |
| GGCUGAGCUCCAUACAGCGUAGCAAAGUGGCUGUGGCUAGACUGCC [A4U A11C C13U G21A] | 0.02 |
| GGCAGAGCUCCACACAGCGUGGCAAAGUGUCUGUGCUUAGACUGCC [A11C G30U G36C C37U] | 0.01 |
| GGCAGAGCUAGACACAGCGUGGCAAAGUGGCUGUGACUAGACUGCC [C10A A11G G36A] | 0.03 |
| GGCAGAGCUCUAAACAGCGUGGCAAAGUGCCUGUGGCUAGACUGCC [A11U C13A G30C] | 0.01 |

| Variant | self-cleavage |
| --- | --- |
| GCCAGAGCUCAACACUGCGUCGCAAAGGGGCUGUGGCUAGACUGCC [G2C A16U G21C U28G] | 0.01 |
| GGCACAGGUCAAUACAUCGUGGCAAAGUUGCGGUGGCUAGUCUGCC [G5C C8G C13U G17U G29U U32G A41U] | 0.1 |
| GACAUAGCUCAACACAGCGUGGCAAAGUGGCUGUGGUUAGACUGCC [G2A G5U C37U] | 0.35 |
| CGCAGAGCUAAACACAGCAUGGCAAAGUGGCUUUGGCUAGAAUGCC [G1C C10A G19A G33U C42A] | 0 |
| UGCAGAGCUCAACACAGCGUGGCAAAGUGGCUGUGGUUCGACUGCC [G1U C37U A39C] | 0.04 |
| GGCAGAUCUCAACAGACCGUGGUAAAUUUGCUGUGCUUAGACUGCC [G7U C15G G17C C23U G27U G29U G36C C37U] | 0.06 |
| GGCAGAGCUCAACACAGCGUGGCAAAGUGUCGGGGGCUAAACGGAC [G30U U32G U34G G40A U43G C45A] | 0.02 |
| GGCAGCGCUCAAUAAAGCUUGGCAAAGUGGCUGUGGGUAGACUGCC [A6C C13U C15A G19U C37G] | 0.22 |
| GACAGAGCUCAACUCAGCGUGGCAAAGUGACUGUGGCUAGACUGCC [G2A A14U G30A] | 0.04 |
| GGCAUAGCUCAACACAGCGUGGCCAAGUGGCUGUGGCUAGAUUGCC [G5U A24C C42U] | 0.03 |
| UGCAGUGAUCAACACAGCGAGGCAAAGUGGCUGUGGCUGAACUGCC [G1U A6U C8A U20A A39G G40A] | 0.03 |
| GGGAGAGCUCAACAUAGCGUGGCAAAGUGGCUGUGGCUAGACUGCA [C3G C15U C46A] | 0.35 |
| GGCAGAGUUCAAUACAGCGUGGCAAAGUAGCUGUGGCUACACUCCC [C8U C13U G29A G40C G44C] | 0.06 |
| GGCAGAGCGAAAUACAGUGUGACAAAGUGGCUGUGGCUAGACUGCC [U9G C10A C13U C18U G22A] | 0.03 |
| GGCAGAGCUCAACACAGCGAGGCAAAGUGGCUGUAGCUAGUCUCCC [U20A G35A A41U G44C] | 0.04 |
| GGCAGAGCUCAUCACACCGUGGCAAAUUGGCUGUGGCUAGACUGCC [A12U G17C G27U] | 0.01 |
| GGCUGAGCUCAACACAGCGUGGCAAAGUGGAUGUAGCUAGACUGCC [A4U C31A G35A] | 0.09 |
| GGCAGAGCUCAACCCAGCGUGGCAAAGUGGAUGUGGUUAGACCGCC [A14C C31A C37U U43C] | 0.01 |
| GGCAGGGCUCAACAAAGCGUCGCAAUGUGGCUGGGGCUCGACUGCC [A6G C15A G21C A26U U34G A39C] | 0.02 |

| Variant | self-cleavage |
| --- | --- |
| GGCAGAGCCCAACAGUGCGUGGCAAAGUGUCUGUGGCUAGACUGCC [U9C C15G A16U G30U] | 0.03 |
| GGCAGAGCUCCACACAGCGUGGCAUAGUGGCUGUGGCUAGACUGAC [A11C A25U C45A] | 0.01 |
| GGCAGAGCACAAUACAGCGUGGCAAAUUGGCUGGGGCUAGACUGCC [U9A C13U G27U U34G] | 0.13 |
| GGCAGGGCUCAACACGGCGUGGCAAAGUGGCUGUGGCUAGACUGCG [A6G A16G C46G] | 0.03 |
| GGCAGAGGUCAGCACAACGUGGCAAAUUGGCUGUGGCUGGACUGCC [C8G A12G G17A G27U A39G] | 0.01 |
| GCCAGAGCUAAACACAGCGUGGCAAAGUGGCUAUGGCUAGACUGCC [G2C C10A G33A] | 0.03 |
| GGCAGAGCUCAACAGAGCGGGGCAAAGUGGCUGUGACUAGACUGCC [C15G U20G G36A] | 0 |
| GGCAGAGCUCAUCACAGCGUGGCAAAGUGGCUGUUACUAGACUGCC [A12U G35U G36A] | 0.27 |
| GGCAGAGCUCAAGUCAGCGUGGCAAAGUGGCUGUGGCAAGACUGCC [C13G A14U U38A] | 0.03 |
| GACAGAGCCCAACUCAGCGUGGCAAAGUGGCUGUGGCUAAACUGCC [G2A U9C A14U G40A] | 0.04 |
| GGCAGAGCUCAAGACAUCGUGGCCAAGUGGCUGUGGCUAGACUGCC [C13G G17U A24C] | 0.02 |
| GGCAGAGCACAACACAGCGUGGCAAAGCGCCUGUGCCAAGACUGCC [U9A U28C G30C G36C U38A] | 0.04 |
| GGCUCAGCUCAACACUGCGUGGCAAAGUGGCUUUGGCUAGACUGGC [A4U G5C A16U G33U C45G] | 0.09 |
| GGCAGAGCUCAACACAGCGUGGAAAUGUGGCUGUGGCUAGACUGGC [C23A A26U C45G] | 2.8 |
| GCCAGAGCUGAACACAGGGUGGCAAAGAGGCUGUGGCUAGACUGCC [G2C C10G C18G U28A] | 0.01 |
| GGCAGAGCUAAACACAGCGUGGCAAAGUGGCUGGGGCUAUACUGCC [C10A U34G G40U] | 0.02 |
| GGCAGAGCUCAGCACACUGUGACAAAGUAGCUGAGGCUAGACUGCC [A12G G17C C18U G22A G29A U34A] | 0 |
| GGCAGUGCUCAACUCAGCGUGGCAAAGUGGCUGUUGCUAGACUGCC [A6U A14U G35U] | 0.06 |
